Measurements reported in the supplement of paper PMC4166925.
± gives the standard deviation of the averaged measurements. Whole data set: some 33,000 sequences, median “E-score (dimensionless, -0.5 to 0.5)” near -0.049, cut for the highest 2% near 0.37. The list shows a part of the results.

The sequences below were run on T1, PmTbr T-box DNA-binding domain (GST fusion) (assay: PBM E-score of 8-mer (E-score (dimensionless, -0.5 to 0.5)); Tbr is Tbrain of the sea star Patiria miniata (Pm) or the sea urchin Strongylocentrotus purpuratus (Sp); higher = stronger binding preference; most listed sequences are background and not binding sites). Conditions: the construct has about 5 more residues each side.
T1 sequence: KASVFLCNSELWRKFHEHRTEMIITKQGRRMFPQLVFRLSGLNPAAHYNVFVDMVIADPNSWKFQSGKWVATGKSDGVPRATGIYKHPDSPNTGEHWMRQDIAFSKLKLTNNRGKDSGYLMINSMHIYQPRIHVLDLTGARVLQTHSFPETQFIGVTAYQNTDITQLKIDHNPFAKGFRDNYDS
Method in brief: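 Universal Agilent oligonucleotide arrays, made double-stranded by primer extension, were incubated with 200 nM GST-fused Tbr T-box DNA-binding domain in PBS (pH 7.5). The protein was expressed in BL21 E. coli at 20 °C and purified by glutathione affinity chromatography. After scanning and quantification, the Universal PBM Analysis Suite assigned an enrichment E-score to each ungapped 8-mer, averaged over duplicate arrays.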

Sequence	PBM E-score of 8-mer
GCGTCTAA	0.0383 ± 0.092
AAATACTC	-0.0913 ± 0.13
ATGGCGGG	-0.0261 ± 0.0049
CGCTAGAA	0.16 ± 0.025
CGGCAGCA	-0.0457 ± 0.033
CGACTTCC	-0.183 ± 0.002
GCGCTTAA	0.086 ± 0.028
TCGTGGCA	0.0904 ± 0.025
GGAGTCAC	0.0817 ± 0.017
GCCTTTCA	-0.0251 ± 0.074
GTCCGCAA	0.0782 ± 0.0017
ATGGCAGG	0.0144 ± 0.013
AGACAAGG	-0.199 ± 0.026
ACTATGAA	-0.14 ± 0.051
ATGGGCGA	0.0516 ± 0.067
CGCAGCTC	0.0937 ± 0.005
CCTATTGC	-0.0884 ± 0.063
AAATACCT	-0.128 ± 0.096
GCATGGGA	-0.253 ± 0.057
AAATTCTC	0.123 ± 0.05
CGACCTGA	-0.0522 ± 0.11
GATCCCAA	-0.244 ± 0.044
ACACTGGA	-0.0859 ± 0.03
GCTGTATA	0.0268 ± 0.047
AACGCCGT	0.174 ± 0.0068
AATCAGCG	0.0461 ± 0.05
GACATACA	-0.0342 ± 0.031
ACTAACTG	0.0889 ± 0.035

Sequence	PBM E-score of 8-mer
GCCAGAGA	0.00995 ± 0.026
CATGAGGG	-0.236 ± 0.042
CATTTGTC	0.0836 ± 0.0065
GTAGAGGA	-0.2137 ± 0.00037
ACCCTCGG	-0.0772 ± 0.018
CATACTGA	-0.21 ± 0.1
CCCTTGAG	-0.118 ± 0.033
GCCACTGA	0.1436 ± 0.00088
ATAACTTC	0.0466 ± 0.081
GAAGGTTA	-0.109 ± 0.011
AAGGAGGA	-0.298 ± 0.043
CCATAACG	-0.0143 ± 0.027
GAGCCTGA	-0.0616 ± 0.083
GGAAAATA	-0.11 ± 0.15
AACGTCTA	-0.196 ± 0.0042
ACCGCGAT	0.267 ± 0.03
AGGCGATC	-0.0105 ± 0.036
AAGATCCC	-0.0326 ± 0.008
GGATGAGA	-0.203 ± 0.067
CGTGGTGC	0.0814 ± 0.034
ATTGGTGA	0.205 ± 0.005
ATTACACA	0.126 ± 0.063
GAGTTCAA	-0.117 ± 0.059
CCACATGC	-0.0952 ± 0.051
ACTTAGGG	0.0547 ± 0.0052
CGGTTTGC	0.07695 ± 0.00059
AAAGATTG	-0.0999 ± 0.023
